In PubChem BioAssay (NCI):
“And” between values parts separate entries of the source, which are not always exact repeats. Identical values can stand only once.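 Grown in 96-well plates, cells were treated for 48 hours with each compound at five concentrations. Insufficient inhibition: endpoint recorded as highest concentration tested. The concentration for 50% growth inhibition is given as GI50. TGI: total growth inhibition.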

Tested on: NCI-H322M lung
Assay: NCI tumour cell line growth inhibition, 48 h

| SMILES | TGI [µM] | GI50 |
| --- | --- | --- |
| N#CCCN(CCN(CCC#N)C(=O)Nc1ccccc1)C(=O)Nc1ccccc1 | > 100 |  |
| O=C1C2Nc3ccccc3SC2C(=O)N1c1ccccc1C(F)(F)F (configuration not stated) | > 100 |  |
| COc1ccc(N=[N+]([O-])c2ccc(OC)cc2)cc1 | > 100 |  |
| CC(=O)c1sc(=N)n(-c2c(C)cccc2C)c1C | > 100 |  |
| Cc1ccc(-c2nc(N3CCCNCC3)c3oc(-c4ccc(C)cc4)nc3n2)cc1 | 3.06 | 1.69 µM |
| C=C(C)C12CC3CC/C(=N/O)C(C1)C3(N1CCOCC1)C/C2=N/O (configuration not stated) | > 100 |  |
| COc1cc2c(cc1OC)C(=O)N(NC1=NCCN1)C2=O | > 100 |  |
| CC1(C)[C@H]2Cc3cc(-c4cc5c(cn4)[C@@H]4C[C@H]([C@@H]5[C@@H]5c6cc(-c7cc8c(cn7)[C@@H]7C[C@H](C8)C7(C)C)ncc6[C@@H]6C[C@H]5C6(C)C)C4(C)C)ncc3[C@@H]1C2 | > 100 |  |
| CC(C)(C)S(=O)OC12CC3CC(CC(C3)C1)C2 (configuration not stated) | > 100 |  |
| Cc1cc(-c2nc3cccc(F)c3s2)ccc1N | > 100 |  |
| O=C(CCN1CCOCC1)C(=Cc1ccccc1)C(=O)CCN1CCOCC1 | 38.4 |  |
| Cn1c2ccccc2c(=O)c2[nH]c3ccccc3c21 | > 100 |  |
| N#Cc1c(N2CCOCC2)[nH]c(=O)c(C(c2c(Cl)cccc2Cl)c2c(O)c(C#N)c(N3CCOCC3)[nH]c2=O)c1O | > 100 |  |
| CC1=NN=C(N)NC1=CC(Sc1ccc(Cl)cc1)c1c(O)ccc2ccccc12 (configuration not stated) | 65 |  |
| C=C1c2c(Cl)ccc(O)c2C(O)=C2C(=O)[C@]3(O)C(O)=C(C(N)=O)C(=O)[C@@H](N(C)C)[C@@H]3[C@@H](O)[C@H]12 | 3.62 | 0.998 µM |
| COc1cc(C(=O)Nc2cc(C(N)=O)cc(OC)c2OC)cc(NC(=O)/C=C/c2ccccc2)c1OC | > 100 |  |
| Cc1ccc(S(=O)(=O)NNC2Oc3cc4c(cc3C(c3ccccc3O)C2C)OCO4)cc1 (configuration not stated) | 30 |  |
| C/C=C(\C)C(=O)N[C@H]1C(O)C[C@]2(C)C3CC[C@@]4(C)C(CC[C@@H]4C(C)N(C)C)C3CCC2C1O (some centres not stated) | 18 | 4.19 µM |
| Cc1cc(Cl)ccc1C1OC(=O)c2c1ccc1ccccc21 (configuration not stated) | > 100 |  |
| CC1=CC(=O)N(c2c(C)cccc2Cl)C(C)N1 (configuration not stated) | > 100 |  |
| Cc1c(C)c(S(=O)(=O)N(CCCCCON)OCCCN)c(C)c2c1OC(C)(C)CC2 | 26.3 |  |
| COc1ccc(Nc2c3ccccc3nc3[nH]c4ccccc4c23)cc1 | > 50 | > 50 µM |
| Cc1cc(OCc2nnc3n2N=C(c2ccc(Cl)cc2Cl)CS3)ccc1Cl | > 100 | > 100 µM |
| CN1CC(=O)N(C)c2nc[nH]c2C1=O | > 100 |  |
| CCn1c2ccccc2c2cc(C(O)c3cccc4ncccc34)ccc21 (configuration not stated) | > 100 | 0.133 µM |
| CC1(C)OC(=O)C=C([O-])O1.CC1(C)OC(=O)C=C([O-])O1.CC[O-].CC[O-].[Ti+4] | > 100 | > 100 µM |

| SMILES | TGI [µM] | GI50 |
| --- | --- | --- |
| C/C(=N\NC(=S)NCc1ccccc1)c1nc2ncccc2[nH]1 | 61.2 |  |
| C/C=C/[C@H](O[Si](C)(C)C(C)(C)C)[C@@H](O)/C=C/C(=O)OCC | 81.2 |  |
| COc1ccc(NC2CC(C)N(C(=O)c3ccccc3)O2)cc1 (configuration not stated) | > 10 |  |
| CN1C(=O)C2C=C3CCCCC3=CC2N(C)C1=O (configuration not stated) | > 100 |  |
| Cc1nc2c(=O)n3c4c(cccc4c2o1)CCC3 | > 100 |  |
| ClCc1ccc(Cn2cnc3c(Cl)nc(Cl)nc32)cc1 | 25.2 | 12.7 µM |
| CC1=C(C(=O)Nc2ccc([N+](=O)[O-])cc2)C(c2ccccc2F)C(C(=O)Nc2ccc([N+](=O)[O-])cc2)=C(C)N1 | 90.9 |  |
| Cc1cc(N(CCC#N)CCC#N)ccc1C=Nc1ccc(C(=O)NN2C(=O)/C(=C/c3ccc(N(CCC#N)CCC#N)cc3)N=C2c2cc([N+](=O)[O-])ccc2Cl)cc1 | > 100 |  |
| CC12Oc3ccc4ccccc4c3CC1Cc1c(ccc3ccccc13)O2 (configuration not stated) | > 100 |  |
| CN(C)CCN1C(=O)c2cccc3cccc(c23)C1=O | > 25 | > 25 µM |
| O=C(/C=C1/Nc2ccc([N+](=O)[O-])cc2NC1O)c1cccc([N+](=O)[O-])c1 (configuration not stated) | > 100 |  |
| CN(C)CC1CN=C(NC(=O)Nc2ccccc2)O1 (configuration not stated) | > 100 |  |
| CC(=O)O[C@@H](C1C[C@@H](C)[C@H]2[C@@](O)(O1)[C@H](O)[C@@]1(C)C3=CC[C@H]4C(C)(C)[C@@H](OC5OCC(O)C(O)C5O)CC[C@@]45C[C@@]35CC[C@]21C)C(C)(C)O (some centres not stated) | > 100 |  |
| OC(C/C=N/Nc1ccccc1)(C(F)(F)Cl)C(F)(F)Cl | > 10 |  |
| CCCCNC(=S)/N=C/c1c(O)c2ccccc2[nH]c1=O | > 10 |  |
| CC(=O)ON(C(C)=O)c1ccc(-c2nc3ccccc3s2)cc1C | > 100 |  |
| O=C1NC(=O)C2C1N(Cc1ccccc1)C(=O)N2Cc1ccccc1 (configuration not stated) | > 100 |  |
| NC(=O)c1cccc([C@@H]2O[C@H](CO)[C@@H](O)[C@H]2O)c1 | 65 |  |
| CCCNc1nc2ccccc2c2c1S(=O)(=O)c1ccc(Cl)cc1C2=O | 39.8 | 1.21 µM |
| CC(C)C(NC(=O)C(Cc1ccccc1)NC(=O)[C@H]1CCC[C@H]1NC(=O)C(N)Cc1ccc(O)cc1)C(N)=O (some centres not stated) | > 100 |  |
| CCOC(=O)C1=C(Nc2ccc(Cl)c(Cl)c2)OC/C1=N\NS(=O)(=O)c1ccc(C)cc1 | > 100 |  |
| Nc1n[nH]c(CCc2nc(N)n[nH]2)n1 | > 100 |  |
| CC1(C)O[C@@H](CBr)C[C@H](C[C@H]2C[C@@H](O)C[C@@H](CCOCc3ccccc3)O2)O1 | 34.4 |  |
| COc1ccc(CCNC(=O)[C@H]2CCCC[C@@H]2CCO)cc1OC | > 100 |  |
| CCC(Oc1ccc(OC)c2ccccc(=O)c12)C(=O)O (configuration not stated) | > 100 |  |
| CCCC[C@H]1CCN2C[C@@H](O)[C@@H](O)[C@H]2[C@@H]1O | > 100 |  |

| SMILES | TGI [µM] | GI50 |
| --- | --- | --- |
| CC1OC(OC2C(Oc3cc(O)c4c(c3)O[C@H](c3ccc(O)cc3)CC4=O)OC(CO)C(O)C2O)C(O)C(O)C1O (some centres not stated) | > 100 |  |
| O=C1c2ccccc2-c2c1c(-c1cccc(Br)c1)nc1ccc3ccccc3c21 | > 100 |  |
| CCOP(=O)(OCC)/C(C#N)=C/c1c[nH]c2ccccc12 | > 100 |  |
| O=C1OC(CN2CCOCC2)CN1/N=C/c1ccc([N+](=O)[O-])o1 (configuration not stated) | 98.4 |  |
| CC(Br)C(=O)Nc1ccc(C(=O)O)c(O)c1 (configuration not stated) | 74.1 |  |
| O=C1C=CC(O)C2C1CC13SSC4(CC5C(=O)C=CC(O)C5N4C1=O)C(=O)N23 (configuration not stated) | 5.27 |  |
| Cc1cccc(C(C)(C)C)c1NC(=O)CC1Sc2ccccc2NC1=O (configuration not stated) | > 100 |  |
| O=C(CSC1=NNC2(C(=O)N1)c1ccccc1-c1ccccc12)NC(=S)Nc1ccccc1 | > 10 |  |
| COc1cc(C(=O)Oc2c(C#N)sc3c2c(=O)n(-c2ccccc2)c(=S)n3-c2ccccc2)cc(OC)c1OC | 54.6 |  |
| COc1cc2c(c(OC3OC(CO)C(O)C(O)C3O)c1)C(=O)CC(c1ccc(O)cc1)O2 (configuration not stated) | > 100 |  |
| O=C(NO)c1ccc(O)c(O)c1 | > 100 |  |
| O=C(Nc1ccc(I)cc1F)c1cc(Cl)ccc1O | > 100 | 0.376 µM |
| C[C@H]1C(=O)CC[C@]2(C)CCC(C(C)(C)O)CC12O (some centres not stated) | > 100 |  |
| N#Cc1cc(S(=O)(=O)Nc2nc3ccccc3s2)c(SCc2ccccc2)cc1Cl | 45.6 | 20.6 µM |
| Oc1ccc(Cl)cc1CNc1nc2ccccc2[nH]1 | 41.2 | 15.8 µM |
| COC(=O)CCC(=O)NC1C2CC3CC(C2)CC1C3 (configuration not stated) | > 100 |  |
| O=C1C=CC(CC(=O)c2ccc3ccccc3c2)O1 (configuration not stated) | 32.7 |  |
| CN(C)Cc1cc(C(C)(C)C)cc(C2CCCCC2)c1O | 28 |  |
| CN(/N=N/c1nc(OCc2ccccc2)c2[nH]cnc2n1)C(=O)Oc1ccc([N+](=O)[O-])cc1 | 20.8 | 9.36 µM |
| N#Cc1sc2c(c1O)c(=O)n(-c1ccccc1)c(=S)n2-c1ccccc1 | > 100 |  |
| CCc1nc(N)nc(N)c1-c1ccc(Cl)c(N=CN(C)C)c1 | > 100 |  |
| COC(=O)C1=CC2OC1(C)CCC2=O (configuration not stated) | > 100 |  |
| CC(=O)OCC(Br)C1(C)CCC(C(C)(C)Br)O1 (configuration not stated) | > 100 |  |
| NCCSCCc1ccccc1 | > 100 |  |
| CC(=O)NNc1nc(C)c(C(=O)NNC(=O)C(=O)Nc2c(C)cccc2C(C)(C)C)s1 | > 100 |  |
| CCc1n[nH]c(=O)n1CCO | > 100 |  |

| SMILES | TGI [µM] | GI50 |
| --- | --- | --- |
| CN(C)Cc1cc(N=Nc2ccc(Cl)cc2)ccc1OC(=O)c1ccccc1 | 32.7 |  |
| CNCCC=C1c2ccccc2CCc2ccccc21 | 27.9 |  |
| O=c1oc2ccc([N+](=O)[O-])cc2c(Nc2ccc3c(c2)S(=O)(=O)c2ccccc2O3)c1[N+](=O)[O-] | > 100 |  |
| N#CC(C#N)=Cn1c(=S)[nH]c2ccccc21 | > 100 |  |
| O=C1Oc2cc3c(c4cccc1c24)O[C@H](c1ccccc1)[C@@H](c1ccccc1)[C@@H]3c1ccc(Cl)cc1 | > 100 |  |
| CSc1cccc(NC(=O)OC2CCCCCCCCCCC2)c1 | 77.2 |  |
| [Cl][Cd][Cl] | 115 | > 71.5 µM and 49.3 µM |
| O=C(O)c1ccccc1NC(=O)C1CCCCC1 | > 100 |  |
| Cc1cccc2c(=O)c3cccc([C@@H](C)C(=O)O)c3oc12 | > 100 |  |
| C=CCCCc1ccc(C(O)CCCCCCCCCCCC)o1 (configuration not stated) | > 100 | 53.8 µM |
| Cc1cc2c(cc1Cl)SC(NNc1ccc([N+](=O)[O-])cc1)=NS2(=O)=O | > 10 |  |
| COc1ccc2nc(NC(=O)C(=O)C(C#N)c3ccc(Cl)c(Cl)c3)sc2c1 (configuration not stated) | > 100 |  |
| CN(C)CCN(C(=Nc1ccccc1)N1CCCC1)c1ccccc1 | > 100 |  |
| O=[N+]([O-])c1ccc(Cl)cc1C1SCc2nc3ccccc3n21 (configuration not stated) | 86.7 |  |
| S=c1[nH]nc(NNc2ccccc2)n1Nc1ccccc1 | > 100 |  |
| O=S(=O)(NCCNc1nccc(-c2c(-c3ccc(F)cc3)nc3sccn23)n1)c1ccccc1 | > 100 | 14.3 µM |
| Cc1cccc2nc3cccc(C(=O)NCCN(C)C)c3nc12 | 4.8 |  |
| COc1ccc2c(c1)CCC(OS(=O)(=O)CC13CCC(CC1=O)C3(C)C)C2=O (configuration not stated) | 66.4 |  |
| COc1ccc(-c2nn(-c3cccc(NC(=O)c4ccc(N5CCOCC5)c(C(F)(F)F)c4)c3)cc2-c2ccncc2)cc1Cl | > 50 | > 50 µM |
| C/C(=N\Nc1nc2ccccc2s1)c1cc(C)ncn1 | > 66 |  |
| COc1cccc(-c2nc(-c3cnccn3)n(COCCO)n2)c1 | > 100 |  |
| Cc1cc2c(C)n(Cc3ccc(Cl)cc3Cl)nc2c(C(=O)O)c1C | > 100 |  |
| Cn1c(=O)c(Oc2ccc(F)cc2F)cc2cnc(NCCS(C)(=O)=O)nc21 | > 25 | > 25 µM |
| CCC(=O)C(C(C)/C=C/CCSc1ccccc1)C(O)CCCCCC(=O)OC (configuration not stated) | > 100 |  |
| COP(=O)(OC)/C(=C\c1cn(C(c2ccccc2)(c2ccccc2)c2ccccc2)cn1)NC(C)=O | > 100 |  |
